# Test results from the supplement of paper PMC7826260.
# The list shows a part of the results. Viral Rep nickase domains cut single-stranded DNA in vitro (1 h at 37 °C, 3 µM enzyme); the outer parts of the 90-letter strands are left off. Uncut reads are compared with the no-enzyme pool on a log2 scale; the lower, the more was cut; hits are not called. Because reads are shares of a total, they shift together; values above 0 arise when much of the pool is cut.
# Legend:
# Experiment in all cases: uncleaved DNA left, log2 of reads against the no-enzyme library (log2 ratio); higher = less cleavage (more negative = more Rep cleavage of the k-mer); sequences stand for … in CTCGTCCG…ACCGGAGA
# [1] = system: T1, Rep nickase domain of Muscovy duck circovirus
# T1 sequence (Rep 1-111, printed without the tag): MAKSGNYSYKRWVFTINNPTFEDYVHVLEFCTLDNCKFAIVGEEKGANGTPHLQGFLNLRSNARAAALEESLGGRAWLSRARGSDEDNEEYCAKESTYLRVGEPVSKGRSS
# Experimental: (§1)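 A pool of 90-nt single-stranded DNAs with seven random bases just before the constant AC of the nick site (name = the seven bases) was cut by 3 µM recombinant His6-SUMO-tagged Rep nickase domain (300 nM DNA, 50 mM HEPES pH 8.0, 50 mM NaCl, 1 mM MnCl2, 1 h, 37 °C, three replicates). Uncut DNA was amplified and sequenced.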
# [2] = system: T2, Rep nickase domain of banana bunchy top virus
# T2 sequence (Rep 1-94, printed without the tag): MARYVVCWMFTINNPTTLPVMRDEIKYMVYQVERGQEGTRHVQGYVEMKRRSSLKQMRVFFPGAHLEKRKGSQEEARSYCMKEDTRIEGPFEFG
# Experimental: as §1
# [3] = system: T3, Rep nickase domain of cabbage leaf curl virus
# T3 sequence (Rep 1-116, printed without the tag): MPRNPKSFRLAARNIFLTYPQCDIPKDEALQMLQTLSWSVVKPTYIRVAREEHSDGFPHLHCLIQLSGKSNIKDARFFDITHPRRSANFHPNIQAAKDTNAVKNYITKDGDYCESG
# Experimental: as §1
# [4] = system: T4, Rep nickase domain of chickpea chlorotic dwarf virus
# T4 sequence (Rep 1-124, printed without the tag): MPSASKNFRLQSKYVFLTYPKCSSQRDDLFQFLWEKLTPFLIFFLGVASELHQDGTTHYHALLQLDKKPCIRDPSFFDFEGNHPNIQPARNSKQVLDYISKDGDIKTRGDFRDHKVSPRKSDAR
# Experimental: as §1
# [5] = system: T5, Rep nickase domain of faba bean necrotic yellows virus
# T5 sequence (Rep 1-98, printed without the tag): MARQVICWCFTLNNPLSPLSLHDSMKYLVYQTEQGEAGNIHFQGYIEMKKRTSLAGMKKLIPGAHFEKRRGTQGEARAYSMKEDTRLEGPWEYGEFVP
# Experimental: as §1
# [6] = system: T6, Rep nickase domain of maize striate mosaic virus
# T6 sequence (Rep 1-117, printed without the tag): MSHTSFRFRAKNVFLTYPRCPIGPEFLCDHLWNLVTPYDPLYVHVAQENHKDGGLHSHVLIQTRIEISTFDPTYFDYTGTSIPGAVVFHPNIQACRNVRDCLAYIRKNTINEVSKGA
# Experimental: as §1
# [7] = system: T7, Rep nickase domain of porcine circovirus 2
# T7 sequence (Rep 2-116, printed without the tag): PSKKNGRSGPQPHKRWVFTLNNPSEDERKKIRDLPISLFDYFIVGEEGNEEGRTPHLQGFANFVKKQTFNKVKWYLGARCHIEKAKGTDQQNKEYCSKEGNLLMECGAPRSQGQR
# Experimental: as §1
# [8] = system: T8, Rep nickase domain of tomato yellow leaf curl virus
# T8 sequence (Rep 1-136, printed without the tag): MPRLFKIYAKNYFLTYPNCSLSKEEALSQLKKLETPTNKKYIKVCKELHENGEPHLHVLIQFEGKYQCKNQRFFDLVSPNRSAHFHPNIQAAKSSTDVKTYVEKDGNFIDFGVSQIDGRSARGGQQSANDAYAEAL
# Experimental: as §1
# [9] = system: T9, Rep nickase domain of wheat dwarf virus
# T9 sequence (Rep 1-137, printed without the tag): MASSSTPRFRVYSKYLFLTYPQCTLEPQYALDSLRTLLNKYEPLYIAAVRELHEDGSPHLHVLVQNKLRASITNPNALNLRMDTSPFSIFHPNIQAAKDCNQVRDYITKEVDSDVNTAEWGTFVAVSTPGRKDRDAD
# Experimental: as §1
Sequence,uncleaved DNA left (log2) [1],uncleaved DNA left (log2) [2],uncleaved DNA left (log2) [3],uncleaved DNA left (log2) [4],uncleaved DNA left (log2) [5],uncleaved DNA left (log2) [6],uncleaved DNA left (log2) [7],uncleaved DNA left (log2) [8],uncleaved DNA left (log2) [9]
CCATGGG,0.0403,-0.00163,-0.72,-0.501,0.0337,-1.15,0.103,0.0371,-0.0833
TAGCGGT,0.00858,-0.036,-0.116,-0.319,-0.206,-0.236,-2.03,-0.0854,-0.0705
CAATTCC,0.0154,0.0758,-2.4,-2.47,-0.0319,-0.896,-0.134,0.0445,-0.384
ACTTCCT,-0.213,-0.0707,-0.288,-2.41,-0.107,-0.67,-0.948,-0.097,-0.0491
GATAGGC,0.0451,0.0199,0.334,0.82,0.0255,0.315,0.189,0.00161,-0.0192
TAATTTA,-1.58,-0.163,-3.08,-3.32,-0.13,-2.46,-2.36,-0.234,-2.95
TACTGTT,-3.38,-3.41,-3.48,-2.85,-0.683,-0.0561,-3.98,-0.141,-1.05
GATGGAC,-0.0195,0.0775,0.802,1.96,0.0609,2.07,0.266,0.072,0.174
GCTTTAC,-0.0398,-0.0111,-0.0386,-0.463,0.019,0.196,-0.00928,0.0309,-0.000276
TCCCACT,0.015,-0.194,-0.0806,-2.15,-0.0501,-0.508,-0.28,-0.244,-0.126
CGGAAAT,-0.0155,0.0831,0.622,1.51,-0.0398,1.71,0.135,0.151,0.0865
GCAGATC,0.158,0.269,0.285,0.427,0.153,0.0258,0.311,0.187,0.296
AGAGTGT,0.0466,-0.087,0.0674,0.338,0.0486,0.281,0.0608,0.0142,0.029
TTCAGAC,0.0462,0.0193,0.334,0.374,-0.0957,0.143,0.08,0.0599,-0.00519
TCACGTT,0.00931,-0.172,-0.573,-2.62,-0.0589,-0.988,-0.316,0.0384,-0.652
AATTTCA,-2.8,-0.859,-0.509,-2.61,-0.0861,-0.814,-2.95,-0.0707,-0.15
CCACTGC,-0.00691,0.132,-0.205,-0.368,0.111,-0.819,0.104,0.026,0.0582
AGATCTC,0.051,0.0182,0.447,0.527,-0.0582,1.08,0.00843,0.0218,0.173
ACACTCA,-0.134,-0.0736,-0.435,-1.55,-0.0215,-0.907,-0.0772,-0.159,-0.0775
GGTAAAT,0.0726,0.098,0.813,1.91,-0.0203,2.12,0.246,0.163,0.181

Sequence,uncleaved DNA left (log2) [1],uncleaved DNA left (log2) [2],uncleaved DNA left (log2) [3],uncleaved DNA left (log2) [4],uncleaved DNA left (log2) [5],uncleaved DNA left (log2) [6],uncleaved DNA left (log2) [7],uncleaved DNA left (log2) [8],uncleaved DNA left (log2) [9]
TTCTTCT,-2.32,-0.0247,0.0174,-2.07,0.0926,-0.527,-2.83,0.0789,-0.000132
TTTATAA,-0.000719,0.119,0.0708,0.182,-0.0615,0.33,-0.0198,0.0768,0.0629
TCATACC,-0.148,0.00545,-0.0864,-1.43,-0.0958,-0.392,-2.8,0.0447,-0.0381
GCGACTT,0.102,0.244,0.223,0.774,0.0746,1.85,0.0097,0.115,0.172
CGATGTA,-0.0725,-0.00721,-0.151,-0.0545,-0.145,0.448,-0.132,-0.12,-0.159
GTTGGGG,-0.0323,-0.0874,0.137,0.389,-0.048,-0.0727,0.1,-0.0532,-0.00141
GGCTCTC,-0.173,-0.0885,0.238,0.75,-0.0455,1.27,-0.149,-0.0716,0.0488
AAGAATT,0.107,-1.41,-0.137,-1.41,-0.355,1.02,-3.64,0.0397,0.11
CACTCGC,-0.0969,0.0989,-0.612,-0.683,-0.0598,-1.05,-0.114,0.0113,-0.0348
TGCGGGG,0.138,-0.0746,0.285,0.564,0.00254,1.05,0.0637,-0.117,-0.0829
AATTGCA,-0.0722,-0.0362,-0.552,0.0214,0.174,-0.5,-0.201,0.215,0.0343
GGCACTC,-0.0547,-0.103,0.47,1.25,-0.0579,1.78,-0.0906,-0.113,0.000853
TTGCGAC,0.0777,0.0246,-0.442,0.0681,0.0976,-0.754,0.0776,0.119,0.111
CTACAGA,-0.0246,0.0457,-0.174,-1.7,0.0566,-0.719,0.138,-0.00405,0.0299
CGGTGCG,-0.132,-0.0745,-0.698,0.84,-0.24,0.18,-0.0974,-0.27,-0.183
CATATAG,-0.000634,-0.0955,-0.819,-0.177,0.0356,-1.17,0.191,-0.0147,-0.0203
TCACCGA,0.0543,-0.0338,-0.288,-0.556,0.0196,-0.823,-0.0462,-0.0352,-0.149
TACATCC,-0.0483,0.0235,-0.0142,-0.796,-0.0456,-0.223,-0.0254,0.0679,-0.0082
GCTAGAC,0.0647,0.0603,0.312,0.802,0.0687,0.646,0.166,0.0616,0.121
